Data taken from PubChem BioAssay AID624296 (National Center for Advancing Translational Sciences (NCATS), 2012).
About 9,900 (2.8%) of roughly 350,000 compounds were called active. This list was built around the results that the source calls inconclusive (neither active nor inactive); the mix of calls is not that of the screen. Calls follow the shape of the dose curve; as a rule, active = well fitted activation curve with a large enough effect; inconclusive = small, poorly fitted or top-dose-only effect; inactive = no such curve, though single readings can be large or run the other way. Potencies of inconclusive entries are left out as doubtful fits.

Experiment: A quantitative high throughput screen for small molecules that induce DNA re-replication in MCF 10a normal breast cells. Also: nearly all actives have a fitted effect of over 50% in size. As to activity, positive = re-replication: % of control where 0% means no effect.
Details: MCF 10A DNA re-replication, Hoechst nuclear intensity, 48 h; activity, positive = re-replication: at 46.1 µM (top of the series)
Potency is read from the fitted curve at half-maximal effect; tags tell the direction and shape of the fitted curve.

Question: Which “activity, positive = re-replication” value does the source give for `Cc1ccc(-c2csc(=S)[nH]2)cc1` here?
Answer: inactive: 11.9%

Question: Which “activity, positive = re-replication” value does the source give for `COc1cccc(CNC(=O)Cn2cc3c(n2)CCCCC3)c1` here?
Answer: inactive: 8.86%

Question: Which “activity, positive = re-replication” value does the source give for `O=C1CN(c2nc(-c3ccccc3)c3cc(Cl)ccc3n2)c2ccccc2N1` here?
Answer: inactive: 0.0088%

Question: For `Clc1ccc(SCc2cc(N3CCOCC3)nc(-c3ccccn3)n2)cc1`, which Potency is on record?
Answer: inconclusive [activator, single point]

Question: For `CCC(C)(C)C1CCc2[nH]nc(C(=O)NCCN3CCOCC3)c2C1` (configuration not stated), which Potency is on record?
Answer: inconclusive [activator, single point]

Question: With `Cc1ccc(CN2C(=O)C(=O)c3cc(C)ccc32)cc1` as the molecule, how does the Potency read?
Answer: inconclusive [activator, single point]

Question: With `COc1ccc(-n2c(O)c(/C=N/NS(=O)(=O)c3cccc([N+](=O)[O-])c3)c3ccccc3c2=O)cc1OC` as the molecule, how does the Potency read?
Answer: inconclusive [activator, single point]

Question: With `C/C(=N\NC(=O)c1c(C)nc2ccccn12)c1ccc(O)cc1O` as the molecule, how does the Potency read?
Answer: inconclusive [activator, partial curve]

Question: With `O=C(CON=C1c2ccccc2-c2ccccc21)NC12CC3CC(CC(C3)C1)C2` as the molecule, how does the Potency read?
Answer: inconclusive [activator, single point]

Question: Which Potency does the source give for `N#Cc1c(NC(=O)CSc2ncc(-c3ccccc3)n2CC2CCCO2)sc2c1CCCC2` (configuration not stated) here?
Answer: inconclusive [activator, partial curve, poor fit]

Question: Which Potency does the source give for `O=C(NCc1ccc(OC(F)(F)F)cc1)C1CC2Cn3c(nc4ccccc43)C2N1c1ccccc1` (configuration not stated) here?
Answer: inconclusive [activator, single point]

Question: With `O=C(c1ccccc1Nc1ccc(SC(F)F)cc1)N1CCCCC1` as the molecule, how does the Potency read?
Answer: inconclusive [activator, partial curve, poor fit]

Question: With `COc1ccc(OC)c(NC(=O)CCN2CCC(C)CC2)c1` as the molecule, how does the Potency read?
Answer: active: 5.17 µM

Question: Which Potency does the source give for `NC(=O)c1ccc2c(=O)n3c(-c4cc(Cl)c(N)c(Cl)c4)csc3nc2c1` here?
Answer: inconclusive [activator, single point]

Question: Which Potency does the source give for `COc1ccccc1NC(=O)N1CCc2c([nH]c3ccccc23)C1C(F)(F)F` (configuration not stated) here?
Answer: inconclusive [activator, single point]

Question: For `C/C(=N\Nc1nc(-c2ccccc2)cs1)c1cccs1`, which “activity, positive = re-replication” value is on record?
Answer: inactive: 1.87%

Question: With `CNC(=S)Nc1ccc(-c2nc3ccc(C)cc3s2)cc1` as the molecule, how does the Potency read?
Answer: active: 22.4 µM

Question: For `C[N+]1(CC(=O)OC2CCCCCCCCCCC2)CCCC1`, which Potency is on record?
Answer: inconclusive [activator, partial curve, poor fit]

Question: For `COc1ccccc1C(=O)Nc1ccc2c(c1)nc1n2CCN(C2CCCCC2)C1`, which Potency is on record?
Answer: inconclusive [activator, single point]

Question: For `C=CCC1(CC=C)CCCN1C(=O)c1cc(COc2ccc(C)nc2)on1`, which “activity, positive = re-replication” value is on record?
Answer: inactive: 26.1%

Question: With `CCc1ccc(N(C(C)=O)c2nc(CCl)cs2)cc1` as the molecule, how does the Potency read?
Answer: inconclusive [activator, full curve, poor fit]

Question: With `O=C(CNCc1ccc(F)cc1)Nc1cc(S(=O)(=O)N2CCOCC2)ccc1Cl` as the molecule, how does the “activity, positive = re-replication” value read?
Answer: inactive: -1.38%

Question: For `O=C(COC(=O)c1cncc(Br)c1)NC1CCCCCC1`, which “activity, positive = re-replication” value is on record?
Answer: inactive: -0.374%

Question: Which “activity, positive = re-replication” value does the source give for `NC(=O)C1CC2(NC(=O)NC2=O)c2cc(F)ccc2O1` (configuration not stated) here?
Answer: inactive: 1.81%

Question: Which Potency does the source give for `CCOCCn1c(CN2CCN(C(c3ccccc3)c3ccccc3)CC2)nc2c1c(=O)n(C)c(=O)n2C` here?
Answer: inconclusive [activator, partial curve, poor fit]

Question: With `COCCNC(=S)N1CCN(c2nc(-c3cccc(OC)c3)cs2)CC1` as the molecule, how does the “activity, positive = re-replication” value read?
Answer: inactive: 6.72%

Question: Which “activity, positive = re-replication” value does the source give for `COc1ccc2c(=O)cc(-c3ccccc3F)oc2c1` here?
Answer: inactive: 0.0077%

Question: Which “activity, positive = re-replication” value does the source give for `COCCN1C(=O)/C(=C/c2ccc(Oc3ccc([N+](=O)[O-])cn3)c(OC)c2)SC1=Nc1ccccc1` here?
Answer: inactive: 12.9%

Question: For `CCCCN(CC)c1nc(N)c(C#N)c(CC#N)c1C#N`, which Potency is on record?
Answer: inconclusive [activator, single point]

Question: With `O=C(O)CCCC(=O)N1CCN(c2nc(-c3ccccc3)c3ccccc3n2)CC1` as the molecule, how does the “activity, positive = re-replication” value read?
Answer: inactive: 5.71%

Question: Which Potency does the source give for `CN(C(=O)COC(=O)CNC(=O)CNC(=O)c1ccc(Cl)cc1Cl)c1ccccc1` here?
Answer: inconclusive [activator, single point]

Question: With `Cc1cccc(Nc2nc(-c3ccccc3)cs2)n1` as the molecule, how does the Potency read?
Answer: inconclusive [activator, single point]

Question: For `Cc1noc(C)c1COc1ccc(C(=O)N2CCN(c3ccccc3F)CC2)cc1`, which Potency is on record?
Answer: inconclusive [activator, single point]

Question: For `O=C(N/N=C/c1c(O)ccc2ccccc12)c1cccc(C(F)(F)F)c1`, which Potency is on record?
Answer: active: 4.61 µM

Question: For `CCCCC1OC23CCCCC2C(C#N)(C(=N)O3)C1(C#N)C#N` (configuration not stated), which “activity, positive = re-replication” value is on record?
Answer: inactive: -13.1%

Question: With `Cc1ccc(-n2nnnc2SCC(=O)N2CCc3ccccc3C2)c(C)c1` as the molecule, how does the “activity, positive = re-replication” value read?
Answer: inactive: -2.98%

Question: Which Potency does the source give for `O=C(COc1ccccc1Cl)Nc1ccc(N2CCN(C(=O)c3ccccc3)CC2)cc1` here?
Answer: inconclusive [activator, single point]

Question: For `CC(=O)N1CCCc2cc(S(=O)(=O)N(CC(C)C)CC(C)C)ccc21`, which Potency is on record?
Answer: inconclusive [activator, partial curve, poor fit]

Question: With `CCCOc1ccc2c3c(c(=O)oc2c1)CCCC3` as the molecule, how does the Potency read?
Answer: inconclusive [activator, single point]

Question: Which “activity, positive = re-replication” value does the source give for `Cc1sc2ncnc(NCC(O)c3ccccc3)c2c1C` (configuration not stated) here?
Answer: inactive: -7.5%

Question: With `COC(=O)CC(c1ccc(F)cc1)n1c(C)ccc1C` (configuration not stated) as the molecule, how does the Potency read?
Answer: active: 23.1 µM

Question: Which Potency does the source give for `Cc1ccc(N(C(=O)c2csnn2)C(C(=O)NC(C)(C)C)c2ccncc2)cc1` (configuration not stated) here?
Answer: active: 9.2 µM

Question: With `NC(=O)C1(c2ccccc2)CCC(=O)N1c1ccccc1` (configuration not stated) as the molecule, how does the “activity, positive = re-replication” value read?
Answer: inactive: -7.76%

Question: Which “activity, positive = re-replication” value does the source give for `O=C(CN1CCN(S(=O)(=O)c2ccc(F)cc2)CC1)Nc1ccccc1C(=O)NC1CC1` here?
Answer: inactive: 6.81%

Question: For `O=C(CNS(=O)(=O)c1ccc(F)cc1)N1CCCC1`, which Potency is on record?
Answer: inconclusive [activator, single point]

Question: For `CC1=C(Nc2ccc(C(=O)O)cc2)C(=O)c2ccccc2C1=O`, which Potency is on record?
Answer: inconclusive [activator, single point]

Question: For `O=C(Cn1nc(C(F)(F)F)c2c1CCC2)N1CCN(c2ccccc2)CC1`, which Potency is on record?
Answer: inconclusive [activator, partial curve, poor fit]
